# Data reported in PubChem BioAssay AID1768 (National Center for Advancing Translational Sciences (NCATS), 2009).
# Hit rate of the full screen: of about 270,000 compounds, about 620 (0.23%) were called active. The shares of active, inactive and inconclusive entries below differ from those in the screen. Calls follow the shape of the dose curve; as a rule, active = well fitted inhibition curve with a large enough effect in the polarisation, with a control signal flat (not every such curve was filed as active); inconclusive = small, poorly fitted or top-dose-only effect, or effect the other way, or a change in a side signal; inactive = no such curve, though single readings can be large or run the other way; the % refers to the polarisation. Potencies of inconclusive entries are doubtful fits and often do not repeat. “Side channel” marks fits to a control or component signal instead of the main read-out.
# Target: Menin (Homo sapiens) (UniProt O00255)
# Experiment: qHTS Assay for Inhibitors Targeting the Menin-MLL Interaction in MLL Related Leukemias: Competition With Texas Red Labeled MLL-derived Mutant Peptide
# Details: fluorescence polarization; series mostly up to 61.6 µM
# Potency is read from the fitted curve at half-maximal effect; tags tell the direction and shape of the fitted curve or compound fluorescence and quenching.
# UniProt O00255, sequence (O00255 whole entry, looked up): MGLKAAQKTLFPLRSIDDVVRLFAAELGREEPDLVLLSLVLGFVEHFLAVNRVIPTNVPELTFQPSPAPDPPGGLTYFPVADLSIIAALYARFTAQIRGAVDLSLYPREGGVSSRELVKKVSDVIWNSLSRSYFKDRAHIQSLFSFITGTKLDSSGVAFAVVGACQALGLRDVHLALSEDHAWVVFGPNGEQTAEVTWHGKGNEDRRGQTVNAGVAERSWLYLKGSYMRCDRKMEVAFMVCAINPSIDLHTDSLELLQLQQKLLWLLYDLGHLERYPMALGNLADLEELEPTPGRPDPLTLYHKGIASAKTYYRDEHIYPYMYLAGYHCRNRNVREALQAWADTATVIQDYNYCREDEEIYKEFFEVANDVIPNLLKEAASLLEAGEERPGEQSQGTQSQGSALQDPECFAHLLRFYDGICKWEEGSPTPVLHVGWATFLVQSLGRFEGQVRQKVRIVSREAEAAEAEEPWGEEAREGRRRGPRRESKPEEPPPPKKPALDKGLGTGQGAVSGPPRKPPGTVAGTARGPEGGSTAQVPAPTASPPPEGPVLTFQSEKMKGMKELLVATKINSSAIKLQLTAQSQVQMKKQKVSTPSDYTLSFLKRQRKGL
row,SMILES,Potency
1,CCCn1c(SC/C(O)=C(\C#N)c2nc3ccccc3[nH]2)n[nH]c1=O,"inconclusive: 39.8 µM [quencher, side channel, single point]"
2,Cc1[nH]nc(-c2ccc(O)cc2O)c1-c1ccc(Cl)cc1,"inconclusive: 17.8 µM [quencher, side channel, partial curve]"
3,COc1ccc(-n2c(CN3CCOCC3)nc3ccc([N+](=O)[O-])cc3c2=O)c(OC)c1,"inconclusive: 28.2 µM [quencher, side channel, partial curve]"
4,Nc1c(C(=O)Nc2cccc(F)c2)nnn1-c1ccc2c(c1)OCCO2,"inconclusive: 28.2 µM [inhibitor, single point]"
5,COC(=O)c1ccc(/C=N/Nc2nc3ccccc3[nH]2)cc1,"inconclusive: 31.6 µM [quencher, side channel, single point]"
6,Nc1cccn2c(-c3ccc(Cl)c(Cl)c3)cnc12,"inconclusive: 28.2 µM [quencher, single point]"
7,Cc1ccc(S(=O)(=O)N(C(=N)N)c2nc(N(C)C)nc(N(C)C)n2)cc1,"inconclusive: 39.8 µM [inhibitor, single point]"
8,NC(=O)C1CCCN(CC(=O)N2CCN(c3ccccc3)CC2)C1 (stereo unspecified),"inconclusive: 0.708 µM [quencher, side channel, full curve, poor fit]"
9,CC(C)N=c1scc(-c2cccs2)n1/N=C/c1ccc(O)c(O)c1O,"inconclusive: 25.1 µM [quencher, side channel, partial curve]"
10,CSCC[C@H](NC(=O)[C@@H]1CCCN1C(=O)[C@H](CCCN=C(N)N)NC(=O)[C@H](CC(C)C)NC(=O)[C@@H]1CCCN1C(=O)[C@@H](NC(=O)[C@@H](N)CCC(N)=O)C(C)C)C(=O)N[C@H](C(=O)N[C@@H](Cc1ccc(O)cc1)C(=O)N[C@@H](CCCCN)C(=O)O)[C@@H](C)O,inactive
11,COc1ccc(N2CCN(c3ncnc4scc(-c5ccccc5)c34)CC2)cc1,inactive
12,CCOC(=O)c1[nH]cnc1C(=O)Nc1ccncc1,"inconclusive: 39.8 µM [inhibitor, single point]"
13,O=[N+]([O-])c1ccc(/C=C/c2ccc3cccc(O)c3n2)cc1,"inconclusive: 10 µM [quencher, side channel, partial curve]"
14,Cc1ccc(C(c2nnnn2C(C)(C)C)N2CCC(C)CC2)cc1 (stereo unspecified),"inconclusive: 28.2 µM [fluorescent, side channel, single point]"
15,Cc1ccccc1OC(C)C(=O)N1CCC(Cc2ccccc2)CC1 (stereo unspecified),"inconclusive: 7.94 µM [fluorescent, side channel, full curve]"
16,O=C(Nc1ccc(Cl)cn1)C1C(c2ccccc2)C1(Cl)Cl (stereo unspecified),"inconclusive: 25.1 µM [quencher, side channel, partial curve]"
17,S=c1[nH]nc(C2CCCCC2)n1/N=C/c1ccc(Br)cc1,"inconclusive: 28.2 µM [fluorescent, side channel, partial curve]"
18,N#Cc1nc(Cc2ccccc2)oc1N1CCN(c2ccccc2)CC1,inactive

row,SMILES,Potency
1,COC(=O)c1ccc(NC(=O)CO/N=C2\CCCc3nonc32)cc1,"inconclusive: 22.4 µM [quencher, side channel, partial curve]"
2,C=CCn1c(Cc2cccs2)nnc1SC/C=C/c1ccccc1,"inconclusive: 3.55 µM [fluorescent, side channel, full curve]"
3,COc1cccc(/C=C(/C(=O)OCC(=O)NC2CCCCCCC2)c2ccccc2)c1,"inconclusive: 11.2 µM [fluorescent, side channel, partial curve, poor fit]"
4,O=[N+]([O-])c1ccc(Nc2ccc3ccccc3c2)nc1,"inconclusive: 14.1 µM [quencher, side channel, partial curve]"
5,Cn1c(-c2cccc(Br)c2)cnc1NCc1ccccc1O,"inconclusive: 39.8 µM [quencher, side channel, single point]"
6,COc1cc(CN2CCN(Cc3cccc(OC)c3OC)CC2)cc(OC)c1,"inconclusive: 39.8 µM [inhibitor, single point]"
7,Cc1csc(SCC(=O)Nc2sccc2C#N)n1,"inconclusive: 22.4 µM [quencher, side channel, single point]"
8,CCOc1ccc2nc(NC(=O)CCn3cccc3)sc2c1,inactive
9,CC(=O)N[C@@H]1C(O[C@H]2O[C@H](C(=O)O)C(O)[C@H](O)[C@H]2O)[C@H](O)[C@@H](CO)O[C@H]1O[C@@H]1C(C(=O)O)O[C@@H](O[C@H]2[C@H](O)[C@@H](CO)OC(O)[C@@H]2NC(C)=O)[C@H](O)[C@H]1O (stereo partly specified),inactive
10,Cc1cc(C2=NNC(=Nc3ccc(S(=O)(=O)N4CCOCC4)cc3)SC2)c(C)n1CC1CCCO1 (stereo unspecified),"inconclusive: 15.8 µM [quencher, side channel, partial curve]"
11,O=C(O)CCCNC(=O)c1cncc(O)c1,inactive
12,O=C(CNC1CCCCCC1)Nc1ccccc1N1CCCCC1,"inconclusive: 7.94 µM [inhibitor, full curve, poor fit]"
13,Cc1cccc(OCCn2cc(/C=N/NC(=O)c3ccncc3)c3ccccc32)c1,"inconclusive: 12.6 µM [quencher, side channel, partial curve]"
14,CCc1c(C)sc(NC(=S)Nc2cccnc2)c1C(=O)OC,"inconclusive: 39.8 µM [quencher, side channel, single point]"
15,CCOC(=O)Cc1csc(NC(=S)NC(=O)c2ccccc2Br)n1,"inconclusive: 31.6 µM [quencher, side channel, single point]"
16,CC(C)C[C@H]1CN=C(Nc2ccccc2)N1CC1CCCCC1,inactive
17,Nc1ccc(-c2ccc(N)c([N+](=O)[O-])c2)cc1[N+](=O)[O-],"inconclusive: 6.31 µM [quencher, side channel, partial curve]"
18,CCCCn1c(=O)c(CCC(=O)OCC(=O)NC(C)c2ccccc2)nc2ccccc21 (stereo unspecified),"inconclusive: 8.91 µM [fluorescent, side channel, full curve]"
